Test results taken from PubChem BioAssay AID360 (National Center for Advancing Translational Sciences (NCATS), 2006).
The campaign covered roughly 48,000 compounds. About 550 (1.1%) were called active. Not shown: some 4% with an inconclusive outcome. No stated cut-off is given here; in the data, active means potency below about 15 µM; inconclusive means mostly about 16 µM to 33 µM; inactive means weaker than that. Some of the results follow.

The molecules below were run against Lysosomal acid glucosylceramidase (Homo sapiens) (UniProt P04062) (assay: Glucocerebrosidase). Conditions: purified enzyme, resorufin glucoside fluorescence (screen aimed at inhibitors), 20 min.
Method in brief: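 Wild-type enzyme at 0.2 nM final in 50mM citric acid/KH2PO4, 10mM sodium taurocholate, 0.01% tween-20, pH 5.9, with resorufin beta-D-glucopyranoside at 30 uM final. Compounds titrated, 20 min at RT, red fluorescence read; AC50 from titration.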
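Further: the screen sought inhibitors.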
Potency means the concentration at half of the fitted maximal effect.

UniProt P04062, sequence (P04062 whole entry, looked up): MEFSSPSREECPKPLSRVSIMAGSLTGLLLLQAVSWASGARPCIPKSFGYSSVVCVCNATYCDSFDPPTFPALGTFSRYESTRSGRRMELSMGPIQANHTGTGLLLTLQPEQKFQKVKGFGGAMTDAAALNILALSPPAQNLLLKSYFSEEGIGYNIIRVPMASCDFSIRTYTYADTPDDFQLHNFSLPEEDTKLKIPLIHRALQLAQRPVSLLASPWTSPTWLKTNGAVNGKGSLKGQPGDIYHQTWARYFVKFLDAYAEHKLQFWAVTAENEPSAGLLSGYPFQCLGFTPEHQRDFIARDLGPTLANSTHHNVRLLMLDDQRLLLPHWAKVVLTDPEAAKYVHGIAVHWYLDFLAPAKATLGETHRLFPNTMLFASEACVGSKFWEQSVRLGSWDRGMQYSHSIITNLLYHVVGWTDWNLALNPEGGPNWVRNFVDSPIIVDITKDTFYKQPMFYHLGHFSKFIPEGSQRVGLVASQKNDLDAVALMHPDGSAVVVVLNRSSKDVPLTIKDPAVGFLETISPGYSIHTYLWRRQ

Potency, inactive:
O=C(NCCCNCc1ccccc1)c1ccccn1 > 76.9 µM, CCc1c(C(=O)Nc2ncn(Cc3cccc(C)c3)n2)csc1C > 76.9 µM, COC(=O)N1CN(C(=O)OC)CN(C(=O)OC)C1 > 76.9 µM, CN1C(=O)CC(N2CCC(c3nc4ccccc4s3)CC2)C1=O (stereo not given) > 76.9 µM, Cc1nc2ccccc2nc1CSc1nncs1 > 76.9 µM, CN(C)c1nc(N)nc(-c2nc3ccccc3s2)n1 > 76.9 µM, C=CCn1c(COc2cccc(C)c2)nnc1SCC(=O)NC(=O)NCc1ccco1 > 76.9 µM, COc1cc(CN2CCC(C(=O)N3CCN(c4ccccc4F)CC3)CC2)cc(OC)c1O > 76.9 µM, COc1ccc(N2CCN(C(=O)CSc3nnc4n3C(C)(C)Cc3ccccc3-4)CC2)cc1 > 76.9 µM, COC(=O)[C@@H](NC(=O)Nc1ccccc1F)C(C)C > 76.9 µM, C=C1CC(C)OC(c2ccccc2OCC(O)CN2CCCCC2)C1 (stereo not given) > 76.9 µM, Cc1cccc(-c2noc(CN(C)S(=O)(=O)c3cc(Cl)ccc3Cl)n2)c1 > 76.9 µM, O=C(CSc1nncs1)NCc1ccc2c(c1)OCO2 > 76.9 µM, Cc1ccc(OCCC(=O)OCC(=O)Nc2ccc(Cl)cn2)cc1 > 76.9 µM, O=C(Nc1cccc2nsnc12)C1CC(=O)N(c2ccccc2)C1 (stereo not given) > 76.9 µM, O=C(COc1ccc(Cl)cc1)Nc1ccccc1N1CCOCC1 > 76.9 µM, O=C(CCSc1nnc(-c2ccco2)o1)Nc1ccc(Cl)cc1 > 76.9 µM, Cc1ccc2c(CC(=O)OCc3csc(C)n3)coc2c1 > 76.9 µM, Cc1cc(Cl)c(S(=O)(=O)NC(C(=O)O)c2ccccc2)cc1OCC(N)=O (stereo not given) > 76.9 µM, CCOc1ccc(N2C(=O)c3ccc(C(=O)OCc4c(C)noc4C)cc3C2=O)cc1 > 76.9 µM, O=c1nc2n(c3c4c(sc13)CCC4)CCC2 > 76.9 µM, Cc1cc(NC(=O)CCCC(=O)Nc2ccc(F)cc2)no1 > 15.4 µM, COc1ccc(N2CCN(S(=O)(=O)c3ccc(Br)s3)CC2)cc1 > 76.9 µM, C/C(Cl)=C/Cn1c(N2CCCC2)nc2c1c(=O)n(C)c(=O)n2C > 76.9 µM, CC(=O)Nc1cccc(NC(=O)CCn2cnc3cc(C)c(C)cc32)c1 > 76.9 µM, CCOC(=O)C1CCCN(Cc2c(F)cccc2Cl)C1 (stereo not given) > 76.9 µM, O=C(Nc1ccc2nc(-c3ccco3)[nH]c2c1)c1cccs1 > 76.9 µM, c1ccc(-c2nn3c(Cn4cnc5ccccc54)nnc3s2)cc1 > 76.9 µM, CCCCS(=O)(=O)Nc1ccc(Cc2ccncc2)cc1 > 76.9 µM, CCOC(=O)c1nn(-c2ccc(OC)cc2)c(=O)c2c(N)scc12 > 76.9 µM, CC(C)C(NC(=O)c1ccc(Cl)cc1)C(=O)NC1=NCCS1 (stereo not given) > 76.9 µM, COCc1nnc(NS(=O)(=O)c2ccccc2)s1 > 76.9 µM, Cc1ccc(C(=O)CSc2nnc(-c3ccco3)n2Cc2ccccc2)cc1 > 76.9 µM, CN1C(=O)C2(NCCc3c2[nH]c2ccccc32)c2ccccc21 (stereo not given) > 76.9 µM, COc1cc2[nH]c(=O)n3nc(-c4ccccc4)nc3c2cc1OC > 76.9 µM, CC1(C)NC(=O)N(CC(O)CN2CCCC2)C1=O (stereo not given) > 76.9 µM, Cc1ccc(N2CC(C(=O)Nc3ccccn3)CC2=O)cc1 (stereo not given) > 76.9 µM, CCOC(=O)c1cccc(NC(=O)CCn2nnc3ccccc32)c1 > 76.9 µM, COC(=O)c1cccc(NC(=O)C2C3CCC(C3)C2C(=O)O)c1 (stereo not given) > 76.9 µM, CCCCC(=O)Nc1ccc(C(=O)N2CCN(C)CC2)cc1 > 76.9 µM, CC1CN(C(=O)c2ccccc2C(=O)c2ncc[nH]2)CC(C)O1 (stereo not given) > 76.9 µM, CCSc1nc2c(c(=O)[nH]1)C(c1cccnc1)C(C(=O)OC)=C(C)N2 (stereo not given) > 76.9 µM, CCOc1ccccc1N1CCN(C(=O)Nc2cccc(Cl)c2)CC1 > 76.9 µM, COC(=O)Nc1ccc(Oc2ccccc2)cc1 > 76.9 µM, Cn1cnnc1Sc1nc2c(c(=O)n(C)c(=O)n2C)n1Cc1ccccc1Cl > 76.9 µM, O=C(Nc1ccccc1N1CCCCC1)c1cccs1 > 76.9 µM, Cc1ccc(Cn2ccc(NC(=O)c3cc(-c4ccc(Br)cc4)on3)n2)cc1 > 76.9 µM, O=C1CCCC/C1=C/Nc1ccc2c(c1)OCO2 > 76.9 µM, O=C(CCc1nc(-c2ccccc2)no1)Nc1cc(C(F)(F)F)ccc1Cl > 76.9 µM, Cn1c(=O)n(C)c2cc(S(=O)(=O)NCc3ccccc3)ccc21 > 76.9 µM, CC(=O)Nc1ccc(-n2c(C)nc(=O)c(-c3ccccc3)c2C)cc1 > 76.9 µM, CCC(=O)c1cn(CC(=O)NCc2cccnc2)c2ccccc12 > 76.9 µM, O=C1CCCc2c1[nH]c1ccccc21 > 76.9 µM, CCn1c(SCC(=O)NCc2ccc3c(c2)OCO3)nnc1-c1c[nH]c2ccccc12 > 76.9 µM, CC1CN(S(=O)(=O)c2cccc(-c3cn4cccnc4n3)c2)CC(C)O1 (stereo not given) > 76.9 µM, CN(C)CCCOC(=O)CCc1ccccc1 > 76.9 µM, CC(=O)C1=C(C)Nc2ncnn2C1c1ccccc1Cl (stereo not given) > 76.9 µM, CC(=O)Nc1c(C(=O)O)[nH]c2ccccc12 > 76.9 µM, C=CCn1c(=O)c2ccccc2n2c(SCC(=O)Nc3cc(C)on3)nnc12 > 76.9 µM, CC(C)n1c(SC2CCOC2=O)nc2ccccc21 (stereo not given) > 76.9 µM
